The whole screen tested about 150,000 compounds, of which about 540 (0.36%) showed an effect of 50% or more. The list shows a part of the results.

For this test, the system named is Plasmodium falciparum. Put plainly: Primary screen in NF54 nanoGlo assay, in single point, at 2uM, 72h; a lower Z score goes with more inhibition. In kind it is functional, Erythrocyte. The conditions noted are these: timepoint 72 hour.
As for `CC(C)NC(=O)[C@H](C)Oc1ccc(O)cc1`, the “% Inhibition” value was 2% and the Z score is -0.27.

Take `O=C(CCC1CCC1)NS(=O)(=O)[C@H]1CCOC1`: the “% Inhibition” value was -12% and the Z score is listed as 2.24.

As to `C[C@@H](NC(=O)NCCc1ccnn1C)c1cc2ccccc2o1`, the “% Inhibition” value is given as -2% and the Z score was 0.24.

For `CCOc1cc(CNCc2ccncc2)ccc1OCc1ccc(Cl)cc1`, the “% Inhibition” value is on record as -8% and the Z score turned out to be 0.98.

Take `Cc1noc(C)c1C(=O)OC(C(=O)N1CC(C)CC(C)C1)C(C)C` (stereo unspecified): the “% Inhibition” value is listed as -5% and the Z score was 0.57.

Turning to `N#Cc1nccnc1N1CCCN(C(=O)Cc2cccc(F)c2)CC1`, the “% Inhibition” value was -9% and the Z score is reported as 1.17.

For the molecule `Cc1nonc1C(=O)NC(c1cnn(C)c1)[C@H]1C[C@H](O)C1` (stereo partly specified), the “% Inhibition” value is reported as -7% and the Z score is on record as 1.39.

`CC1(C)[C@@H](NC(=O)Nc2ccnnc2)[C@@H]1c1ccccc1`: the “% Inhibition” value was -13% and the Z score is on record as 1.29.

Regarding `c1cnc(N2CCN(Cc3nc(-c4ccncc4)no3)CC2)nc1`, the “% Inhibition” value is 2% and the Z score is -0.29.

On to `CC1C(C)S(=O)(=O)CCN1CC1CC1` (stereo unspecified), for which the “% Inhibition” value is on record as -6% and the Z score is on record as 0.68.

Take `Cc1ccc2c(c1)CCCN2C(=O)c1ccc2c(c1)NC(=O)CO2`: the “% Inhibition” value is -10% and the Z score came out at 1.7.

Take `CCn1nc(C)c(CNc2nc(C)no2)c1C`: the “% Inhibition” value is on record as -2% and the Z score amounted to 0.42.

For `Cc1nn(-c2ccccc2)c2c1[C@@H](c1ccc(Cl)cc1)N(c1ccccc1)C(=O)N2`, the “% Inhibition” value is on record as -13% and the Z score amounted to 2.46.

Regarding `C[C@H]1Cc2cc(-n3cnnc3)ccc2O1`, the “% Inhibition” value is listed as -12% and the Z score came out at 1.62.

As to `O=C(c1ccc2c(c1)CN(CC1CCCCC1)CCO2)N1CCCC1`, the “% Inhibition” value is given as -6% and the Z score was determined as 0.9.

`CCCN(Cc1c(-c2ccccc2)nn(C)c1N(C)C)C(=O)c1ccc(C)cc1`: the “% Inhibition” value is listed as -2% and the Z score worked out at 0.46.

Regarding `C[C@@H](O)CNC(=O)NCc1cc(Cl)cc(Cl)c1OC(F)F`, the “% Inhibition” value is on record as -13% and the Z score is given as 2.38.

Turning to `Cc1ccc(N(C(=O)COCc2ccnn2C)C2CCCCC2)nc1`, the “% Inhibition” value was -31% and the Z score worked out at 3.13.

Consider `CCCCn1nc(C2CC2)nc1CCCn1cncn1`, for which the “% Inhibition” value was -6% and the Z score came out at 1.11.

Turning to `Cc1cccc(C(=O)Nc2ccnn2Cc2c(Cl)cccc2Cl)n1`, the “% Inhibition” value was -2% and the Z score turned out to be 0.33.

On to `CCC(CC)C(=O)N1CCC(C(=O)O)C2CCCCC21` (stereo unspecified), for which the “% Inhibition” value is recorded as -2% and the Z score is recorded as 0.46.

As to `Cc1cccc(OCC(=O)N2CCCN(c3cc(=O)n(C)c(=O)n3C)CC2)c1`, the “% Inhibition” value turned out to be 1% and the Z score is -0.17.

As to `CCC[C@H]1C=CCN1C(=O)CCn1ccnc1CC`, the “% Inhibition” value is given as -12% and the Z score came out at 1.25.

Consider `CN(C)c1ccccc1NC(=O)Cn1ccc(=O)[nH]c1=O`, for which the “% Inhibition” value is listed as -5% and the Z score was 0.92.

On to `O=C(CN1CCOC1=O)N1CCC2(CC1)CC(=O)N(Cc1ccccc1)C2`, for which the “% Inhibition” value stood at 3% and the Z score was -0.4.

Consider `Cc1cc(C)cc(OCc2cc(=O)n3ccccc3n2)c1`, for which the “% Inhibition” value was -1% and the Z score worked out at 0.09.

As for `COCCCN(Cc1c(C)nn(-c2ccccc2)c1N1CCN(C)CC1)C(=O)Nc1ccc(Cl)c(Cl)c1`, the “% Inhibition” value worked out at 10% and the Z score is recorded as -0.95.

As for `CC[C@H](OC)C(=O)NC1(CN2CCCCC2)CCCCC1`, the “% Inhibition” value is -6% and the Z score came out at 0.65.

With `O=C(COc1ccc2ccccc2c1)N1CCC2(CC1)CC2(F)F`, the “% Inhibition” value was 9% and the Z score was -1.2.

Take `Cc1ccc(N(C)S(=O)(=O)c2cc(C)oc2C)c(C)c1`: the “% Inhibition” value is recorded as -1% and the Z score was 0.27.

Take `COc1ccc(C(=O)N2CCC[C@H](C(=O)Nc3cc(F)cc(F)c3)C2)c2ccccc12`: the “% Inhibition” value was determined as 6% and the Z score is recorded as -0.58.

As to `C[C@@H](C(=O)Nc1cccc(Cl)c1)N1CCC(c2nnc3n2CCC3)CC1`, the “% Inhibition” value is -5% and the Z score is listed as 1.1.

In the case of `CC(C)(C)N1C[C@@H](c2nc3ccccc3n2Cc2ccc3ccccc3c2)CC1=O`, the “% Inhibition” value is -5% and the Z score is given as 0.63.

On to `CC(=O)N(C(C)=O)c1c(-c2nnc(C)o2)sc2nc(C)cc(C)c12`, for which the “% Inhibition” value was 13% and the Z score was -1.57.

Regarding `Cc1nc(CC(=O)N2CCc3cc(C(=O)N(C)C)n(C)c3C2)cs1`, the “% Inhibition” value was -4% and the Z score stood at 0.77.

Consider `COCc1noc(CN2CC(C)OCC2c2ccccc2)n1` (stereo unspecified), for which the “% Inhibition” value stood at 0% and the Z score is 0.01.

For `CNC(=O)c1cccc(C(=O)N2Cc3ccccc3N(C)C[C@@H]2C)c1`, the “% Inhibition” value is -21% and the Z score is reported as 3.97.

For the molecule `CCc1ccc(O)c(NC(=O)C2([C@]3(O)CCCNC3)CCC2)c1`, the “% Inhibition” value is -12% and the Z score came out at 1.31.

Consider `Cc1cc(C(=O)N(CCN(C)C)C2CCCCC2)nc(C)n1`, for which the “% Inhibition” value was found to be 3% and the Z score was -0.54.

`Cc1cnc(COC(=O)c2scnc2C)o1`: the “% Inhibition” value worked out at 11% and the Z score is recorded as -1.53.

Take `C[C@](O)(CC(=O)NCCC1=CCCCC1)C(F)(F)F`: the “% Inhibition” value is recorded as -6% and the Z score is 1.03.

Take `CCNC(=O)N1CC(C(=O)NCc2ccc3c(c2)OCO3)C(c2ccc(OC)cc2OC)C1` (stereo unspecified): the “% Inhibition” value is on record as -11% and the Z score is listed as 1.04.

As to `Cc1cc(C)n2nc(CCCNC(=O)c3cnn(-c4cccc(Cl)c4)c3C(C)C)c(C#N)c2n1`, the “% Inhibition” value is given as -17% and the Z score is 3.15.

One may read the % Inhibition as the relative decrease from the control value, in per cent.

The values above are taken from ChEMBL document CHEMBL4888484, “Replenishing the malaria drug discovery pipeline: Screening and hit evaluation of the MMV Hit Generation Library 1 (HGL1) against asexual blood stage Plasmodium falciparum ,using a nano luciferase reporter read-out” (2022).
